According to the supplement of paper PMC6135742:
“And” between values parts separate entries of the source, which are not always exact repeats. Equal entries are not always repeated. Structures can show the parent of a compound that is named as a salt. ± gives the standard deviation of the averaged measurements. Over roughly 2,600 compounds, “MBP+ mature oligodendrocyte number relative to DMSO vehicle control” has its median near -0.34; the highest 2% begin near 13. The list shows a part of the results.

test system: jimpy (Plp1 jimpy) mouse iPSC-derived oligodendrocyte progenitor cells; test: MBP+ mature oligodendrocyte number relative to DMSO vehicle control (SDs above negative control mean); higher = more surviving jimpy oligodendrocytes (rescue); conditions: 10 µM; 3 days
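Note: 10 µM single dose with 3-day oligodendrocyte differentiation.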

Structure (SMILES)	MBP+ mature oligodendrocyte number
Cc1cc(NC2CCCCC2)nc(-n2nc(C)cc2C)n1	-3.58
NCCSSCCN [Cystamine dihydrochloride]	-0.668
Nc1nc2c(ncn2COCCO)c(=O)[nH]1 [Acyclovir]	-1.02
Nc1nc2c(ncn2COCCO)c(=O)[nH]1 [Aciclovir]	-1.19
CCCCCN(CCCCC)C(=O)C(CCC(=O)O)NC(=O)c1ccc(Cl)c(Cl)c1 (stereo unspecified) [Lorglumide sodium]	0.382
CS(=O)(=O)N1CCN(Cc2cc3nc(-c4cccc5[nH]ncc45)nc(N4CCOCC4)c3s2)CC1	< -6.7
COc1ccc2[nH]c([S@@+]([O-])Cc3ncc(C)c(OC)c3C)nc2c1 [Esomeprazole magnesium dihydrate]	2.12
COc1ccc2[nH]c([S@@+]([O-])Cc3ncc(C)c(OC)c3C)nc2c1 [Esomeprazole Sodium]	2.47
c1cc(-c2cnn3cc(-c4ccc(N5CCNCC5)cc4)cnc23)c2cccnc2c1	< -6.35
COC(=O)c1c(C)[nH]c(C)c1C(=O)c1ccccc1Cc1ccccc1	0.0316
COc1cc(C(C)=O)ccc1OCCCN1CCC(c2noc3cc(F)ccc23)CC1 [Iloperidone]	-1.03
CCOC(=O)[C@H](CCc1ccccc1)N[C@H]1CCCN2CCC[C@@H](C(=O)O)N2C1=O [Cilazapril Monohydrate]	-0.107
CCCC1O[C@@H]2C[C@H]3[C@@H]4CCC5=CC(=O)C=C[C@]5(C)[C@H]4[C@@H](O)C[C@]3(C)[C@]2(C(=O)CO)O1 (stereo partly specified) [Budesonide]	13.4 ± 10
CN1[C@@H]2CC[C@H]1CC(OC(=O)c1c[nH]c3ccccc13)C2 (stereo partly specified) [3-Tropanyl-indole-3-carboxylate hydrochloride]	-1.25
CCCCCCCCCCCCCCCCCCOCC(COP(=O)([O-])OCC[N+](C)(C)C)OC (stereo unspecified)	-1.12
CC1=C(C(=O)Nc2cc3cn[nH]c3cc2F)C(c2ccc(C(F)(F)F)cc2)CC(=O)N1 (stereo unspecified)	5.35
CNC(=O)c1ccccc1Nc1nc(Nc2ccc(N3CCOCC3)cc2OC)ncc1Cl	< -6.01
NCC(O)(CS(=O)(=O)O)c1ccc(Cl)cc1 (stereo unspecified) [2-Hydroxysaclofen]	-0.904
CC[C@H](NC(=O)c1c(C)c(-c2ccccc2)nc2ccccc12)c1ccccc1	-1.61
CCOC(=O)c1ncn2c1CN(C)C(=O)c1cc(F)ccc1-2 [Flumazenil]	0.227 ± 0.17
O=NN(CCCl)C(=O)NCCCl [Carmustine]	-1.1
Cc1cc(C)c2c(c1)[C@@H](N(Cc1cc(C(F)(F)F)cc(C(F)(F)F)c1)c1nnn(C)n1)CCCN2C[C@H]1CC[C@H](C(=O)O)CC1	7.57
CC(C(=O)O)c1cccc(C(=O)c2ccccc2)c1 (stereo unspecified) [Ketoprofen]	0.391 ± 1.8
Nc1nc(N)c2nc(CNc3ccc(C(=O)N[C@@H](CCC(=O)O)C(=O)O)cc3)cnc2n1 [Aminopterin]	-0.433
CCCCN(Cc1ccc(C(=O)NO)cc1)C(=O)Nc1ccccc1 [Nexturastat A]	-4.64
COC(=O)N[C@H](C(=O)N1CCC[C@H]1c1ncc(-c2ccc(-c3ccc(-c4cnc([C@@H]5CCCN5C(=O)[C@@H](NC(=O)OC)C(C)C)[nH]4)cc3)cc2)[nH]1)C(C)C	-4.43

Structure (SMILES)	MBP+ mature oligodendrocyte number
CC(C)(C)C(=O)C(Oc1ccc(Cl)cc1)n1ccnc1 (stereo unspecified) [Climbazole]	38.6
CC1=C(CC(=O)O)c2cc(F)ccc2/C1=C\c1ccc(S(C)(=O)=O)cc1 [Sulindac sulfone]	8.47
CC(C)N(CCCNC(=O)Nc1ccc(C(C)(C)C)cc1)C[C@H]1O[C@@H](n2cc(Br)c3c(N)ncnc32)[C@H](O)[C@@H]1O	-6.27
COc1ccc(-c2csc(NC(=O)[C@H]3CCCCN3S(=O)(=O)c3ccc(C)cc3)n2)cc1	7.77
NC(N)=NC(=O)c1nc(Cl)c(N2CCCCCC2)nc1N [5-(N,N-hexamethylene)amiloride]	-3.3
O=c1cc2c(=O)oc3cc(O)c(O)oc3c2c(O)c1O [Galloflavin potassium]	0.11
NC(=O)N1C(=O)/C(=C(\O)c2cccs2)c2cc(Cl)ccc21 [Tenidap]	0.00298
CC1(C)S[C@@H]2[C@H](NC(=O)C(C(=O)O)c3ccccc3)C(=O)N2[C@H]1C(=O)O (stereo partly specified) [Carbenicillin disodium]	1.53
O=C1CN(/N=C/c2ccc(-c3ccc([N+](=O)[O-])cc3)o2)C(=O)N1 [Dantrolene sodium]	-0.23
COc1cc(O)c2c(c1)C(=O)c1cc(C)cc(O)c1C2=O [Rheochrysidin]	1.29
CC(C)[C@H]1c2ccc(F)cc2CC[C@@]1(CCN(C)CCCc1nc2ccccc2[nH]1)OC(=O)C1CC1	< -3.97
CCOC(=O)n1ccn(C)c1=S [Carbimazole]	-0.1
COc1cc(N2CCC(N)CC2)ccc1Nc1ncc(Cl)c(-c2c[nH]c3ccccc23)n1	< -6.35
CC1(C)S[C@@H]2[C@H](NC(=O)[C@H](C(=O)O)c3ccsc3)C(=O)N2[C@H]1C(=O)O [Ticarcillin sodium]	2.09
Cc1cc(NS(=O)(=O)c2ccc(N)cc2)no1 [Sulfamethoxazole]	-0.737
O=C(c1ccc2c(c1)OCCO2)N1CCCCC1	-1.28
COC(=O)C1=C(C)NC(C)=C([N+](=O)[O-])C1c1ccccc1C(F)(F)F (racemic)	-0.354
CC[C@H]1OC(=O)C[C@@H](O)[C@H](C)[C@@H](O[C@@H]2O[C@H](C)[C@@H](O[C@H]3C[C@@](C)(O)[C@@H](O)[C@H](C)O3)[C@H](N(C)C)[C@H]2O)[C@@H](CC=O)C[C@@H](C)C(=O)/C=C/C(C)=C/[C@@H]1CO[C@@H]1O[C@H](C)[C@@H](O)[C@@H](OC)[C@H]1OC [Tylosin tartrate]	-2.2
O=C(/C=C/c1ccc(O)c(O)c1)c1ccc(O)cc1O [Butein]	-4.58
CCc1ccc2c(-c3cccc(Cl)c3)nc(=O)n(CC)c2n1	0.235
O=C(CCCCCCC(=O)Nc1ccccc1)NO [Vorinostat (SAHA, MK0683)]	< -6.7
CCNC(=O)CCC/C=C\C[C@@H]1[C@@H](/C=C/[C@@H](O)CCc2ccccc2)[C@H](O)C[C@@H]1O [Bimatoprost]	2.55
COC(=O)C1=C(C)NC(C)=C(C(=O)OC2CCCN(Cc3ccccc3)C2)C1c1cccc([N+](=O)[O-])c1 (stereo unspecified) [Benidipine HCl]	5.65
COC(=O)C1=C(C)NC(C)=C(C(=O)OC2CCCN(Cc3ccccc3)C2)C1c1cccc([N+](=O)[O-])c1 (stereo unspecified) [Benidipine hydrochloride]	1.03
Cc1ccc(NC(=O)c2cccc(N(C)C)c2)cc1NC(=O)c1ccc(O)cc1	14.6
O=C1NCCc2[nH]c(-c3ccncc3)cc21	-5.77 and < -3.34

Structure (SMILES)	MBP+ mature oligodendrocyte number
C[C@]12C[C@H](O)[C@H]3[C@@H](CCC4=CC(=O)CC[C@@]43C)[C@@H]1CC[C@@H]2C(=O)CO [Corticosterone]	1.49
COc1ccc(S(=O)(=O)Nc2cccnc2Nc2ccc(O)cc2)cc1	-6.52
COc1ccccc1N1CCN(CCN(C(=O)c2ccc(F)cc2)c2ccccn2)CC1 [p-MPPF dihydrochloride]	6.54
c1ccc(-c2ccccn2)nc1 [2,2'-Bipyridyl]	-0.073
O=C(O)c1ccc2c(c1)nc(Nc1cccc(Cl)c1)c1ccncc12 [CX-4945 (Silmitasertib)]	< -4.81
CC1(C)O[C@@H]2C[C@H]3[C@@H]4CCC5=CC(=O)C=C[C@]5(C)[C@H]4[C@@H](O)C[C@]3(C)[C@]2(C(=O)CO)O1 [Desonide]	9.44
NCCCCCNCC12CC3CC(CC(C3)C1)C2 [IEM 1754 dihydrobroMide]	-4.82
Cc1cc(OCCCS(C)(=O)=O)cc(C)c1-c1cccc(COc2ccc3c(c2)OC[C@H]3CC(=O)O)c1	-0.69
CCN(CC)C(=S)SSC(=S)N(CC)CC [Disulfiram]	-1.37
O=C(CCCCCN1C(=O)c2cccc3cccc(c23)C1=O)NO [Scriptaid]	-4.58
C=C[C@@]1(C)CC(=O)[C@]2(O)[C@@]3(C)[C@@H](O)CCC(C)(C)[C@@H]3[C@H](O)[C@H](OC(C)=O)[C@@]2(C)O1 [Forskolin]	3.92 ± 2
COc1cc2/c(=N/c3ccc(Br)cc3F)nc[nH]c2cc1OCC1CCN(C)CC1 [Vandetanib (ZD6474)]	< -6.7
Nc1c2c(nc3ccccc13)CCCC2 [9-Amino-1,2,3,4-tetrahydroacridine hydrochloride]	-0.865
O=c1sn(-c2cccc3ccccc23)c(=O)n1Cc1ccccc1 [Tideglusib]	-0.769
O=c1cc(-c2ccccc2)oc2cc(O)cc(O)c12 [Chrysin]	4.59
N[C@@H](CS(=O)O)C(=O)O [L-Cysteinesulfinic Acid]	0.196
COCCCN1CCC(NC(=O)c2cc(Cl)c(N)c3c2OCC3)CC1 [Prucalopride]	4.95
COCCCN1CCC(NC(=O)c2cc(Cl)c(N)c3c2OCC3)CC1 [Prucalopride Succinat]	1.59
COC(=O)C1=C(C#N)NC(C)=C(C(=O)OC(C)C)C1c1cccc([N+](=O)[O-])c1 (stereo unspecified) [Nilvadipine]	-5.69
N#Cc1cc2nc(O)c(O)nc2cc1[N+](=O)[O-] [CNQX disodium]	-0.0207
C[C@@H](CN1CCC(Cc2ccccc2)CC1)[C@@H](O)c1ccc(O)cc1 [Ro 25-6981 hydrochloride]	14.6
C[C@H](CCC(=O)O)[C@H]1CC[C@H]2[C@@H]3[C@@H](O)C[C@@H]4C[C@H](O)CC[C@]4(C)[C@H]3CC[C@]12C [Ursodiol]	3.04
O=C(Nc1ccncc1)c1cc([N+](=O)[O-])ccc1Cl	-3.33 ± 1.5
Cc1cc(NC(=O)Nc2ccc3c(ccn3C)c2)sn1	0.0777
